Structures are written as SMILES.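 Compound exposure: 48 hours, 5 concentrations, 96-well plates. GI50 = concentration required for 50% inhibition of growth.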 Activity calls are given as the source filed them. Rule as the data show it: active = GI50 up to about 1.1 µM and inactive = higher.

The test system of this assay is NCI-H322M. As to the kind of experiment: inhibition of tumour cell growth, NCI panel, 48 h.
With `Oc1ccccc1-c1n[nH]c(-c2ccccc2O)n1`, the GI50 was inactive: 2.18 µM. For `CCc1c(O)c2c(c(O)c1C(C)=O)C(=O)c1c(cc(O)c(C(=O)O)c1C(=O)O)C2=O` the value was inactive: > 100 µM; for `O=Cc1ccccc1B(O)O`, inactive: 73.3 µM. Regarding `O=C(O)c1cc(-c2ccc3cc4c(cc3c2)OCO4)nc2ccccc12`, the GI50 is inactive: 24.5 µM. For `COc1cc2cnc(-c3ccccc3)cc2cc1OC` the value was inactive: 30.3 µM; for `Cc1ccn2c(=O)cc(-c3ccccc3)nc2c1`, inactive: > 100 µM; for `N#CCCN(c1ccc(/C=N/c2cccc([N+](=O)[O-])c2)cc1)S(=O)(=O)c1ccccc1`, inactive: > 100 µM.

Turning to `O=C1C2=Cc3ccccc3OC2(O)Oc2ccc(O)cc21` (stereo unspecified), the GI50 was inactive: > 100 µM. For `Cc1ccc(C(=O)N/N=C(\N=N\c2cccc([N+](=O)[O-])c2)c2ccc(N(CCC#N)CCC#N)cc2C)cc1` the value was inactive: 39.6 µM.

Regarding `CC(=O)OC12c3ccccc3C1CCCC21OCCCO1` (stereo unspecified), the GI50 is inactive: > 100 µM. With `O=C1CSC2(CC(/C=C/c3cccc([N+](=O)[O-])c3)=NN2c2cccc(S(=O)(=O)O)c2)N1c1nc2ccccc2s1` (stereo unspecified), the GI50 was inactive: 39.1 µM.

Turning to `O=S(=O)(c1ccc(I)cc1)N(c1ccccc1)S(=O)(=O)C(F)(F)C(F)(F)C(F)(F)C(F)(F)F`, the GI50 is inactive: 14.2 µM. As for `CCOC(=O)NC(Nc1ccc(OC(F)(F)F)cc1)(C(F)(F)F)C(F)(F)F`, the figure is inactive: > 100 µM. As for `COc1ccc(/C=C2\CCC(C)C3C2=NN(c2ccccc2)C3c2ccc(OC)c(OC)c2)cc1OC` (stereo unspecified), the figure is inactive: 4.04 µM.

On to `Cc1cc(C)n(-c2c(O)ccc(O)c2-n2nc(C)cc2C)n1`, for which the GI50 was inactive: > 100 µM. Regarding `c1cc(CN2CCNCCNCCNCC2)cc(CN2CCNCCNCCNCC2)c1`, the GI50 was inactive: > 100 µM. For `N#CCCSC(=S)C1CCCC1=N` (stereo unspecified) the value was inactive: > 100 µM; for `CCOP(=O)(OCC)/C(C#N)=C\c1ccc(OC(C)=O)cc1`, inactive: > 100 µM.

Regarding `Cc1ccc(S(=O)(=O)NC(=O)N[C@@H](Cc2c[nH]cn2)C(=O)O)cc1`, the GI50 is inactive: > 100 µM. For `COc1ccc(C2Oc3c(cccc3OC)C=C2[N+](=O)[O-])cc1OC` (stereo unspecified) the value was inactive: 17.2 µM; for `O=[N+]([O-])/C(C(Cl)=C(Cl)Cl)=C(\SCc1ccccc1)N1CCCCC1`, inactive: 38.4 µM. As for `CCN(CC)CC(=O)NC1c2ccccc2Oc2ccccc21`, the figure is inactive: > 100 µM; as for `Cc1nc2ccc(F)cc2c2c1CCN2c1ccccc1`, inactive: 21.7 µM. As for `C[C@@H]1CC(=O)C2CCCC1C2=O` (stereo partly specified), the figure is inactive: > 100 µM. With `CCOC(=O)[C@@H](Cc1ccc(CCl)cc1)NC(C)=O`, the GI50 was inactive: 29.8 µM. For `CCN1CCCc2cc3c(C(F)(F)F)cc(=O)oc3cc21` the value was inactive: > 100 µM; for `CC(=O)c1cc(S(=O)(=O)c2ccc(O)c(C(C)=O)c2)ccc1O`, inactive: 40.6 µM; for `CC(C)CCCC(C)[C@H]1CC[C@H]2n3c(nnc3-c3ccccc3)CCC[C@]12C` (stereo partly specified), inactive: 16.4 µM. For `CC(=O)OCC12C(=O)C[C@@H](C)C3(CC(c4ccoc4)OC3=O)C1CCC(OC(C)=O)C21CO1` (stereo partly specified) the value was inactive: > 100 µM. As for `CN1CCc2cc3c(c4c2C1C(O)c1ccccc1-4)OCO3` (stereo unspecified), the figure is inactive: 8.39 µM. As to `c1ccc(-c2cc3[nH]c4ccccc4[nH]c-3cc(-c3ccccc3)nn2)cc1`, the GI50 was inactive: 33.1 µM.

Turning to `O=P1(C(O)/C=C/c2ccccc2)N(Cc2ccccc2)[C@H](c2ccccc2)[C@@H](c2ccccc2)N1Cc1ccccc1` (stereo partly specified), the GI50 is inactive: 23.3 µM. As for `N#CCc1nc(-c2cc3ccc(O)cc3oc2=O)cs1`, the figure is inactive: 39.4 µM. For `O=C1NC(NNc2ccccc2)=N/C1=C\c1ccco1` the value was inactive: 44.3 µM; for `S=P(C1CCCCC1)(C1CCCCC1)C(c1cccnc1)N1CCCC1` (stereo unspecified), inactive: > 100 µM.

Regarding `CC(C)c1c(O)c(O)c2c(c1O)C(=O)C(O)=C1C(C)(C)CCC[C@@]12C`, the GI50 was inactive: 3.25 µM. Regarding `CC1=CC=C2C(C)(C)CC[C@@H]3OC(=O)[C@H]1[C@]23C`, the GI50 is inactive: > 100 µM. For `CCN(CC)CCCOC(=O)/C=C/c1c(C)[nH]c(=O)[nH]c1=O` the value was inactive: > 625 µM.

On to `CCCc1[nH]c2ccccc2c1-c1c(CCC)[nH]c2ccccc12`, for which the GI50 is inactive: 12.6 µM. For `COc1ccc2ccc3oc(=O)c(C)cc3c2c1` the value was inactive: > 100 µM; for `O=C1c2[nH]c3ccc(Br)cc3c2CCN1Cc1ccc(Cl)cc1`, inactive: 16 µM; for `Cc1nc2ccc(F)cc2c2c1CCS2`, inactive: > 100 µM. For `Cc1nc2ccc(NCCN(C)C)c3c(=O)c4cc(O)ccc4n1c23` the value was active: 0.478 µM; for `C=C(Br)C(C)(Cl)CCC(Br)C(C)(C)Cl` (stereo unspecified), inactive: > 100 µM; for `O=C1C=CC2(O[C@@H](Cc3ccccc3)[C@H](Cc3ccccc3)O2)C(SC(=O)c2ccccc2)C1` (stereo partly specified), inactive: 10.7 µM. Consider `CCCCOC(=O)C1CC[C@H]2[C@@H]3CCc4cc(OC(=O)c5cccc6c(=O)c7ccccc7[nH]c56)ccc4[C@H]3CC[C@]12C` (stereo partly specified), for which the GI50 is inactive: 10.4 µM. For `NC(=O)CCC(NCc1c2ccccc2[n+]([O-])c2ccccc12)C(=O)O` (stereo unspecified) the value was inactive: 88.1 µM; for `CN(C)C(=S)N/N=C(\C(=N/NC(=S)N(C)C)c1ccccn1)c1ccccn1`, inactive: 5.52 µM. For `CCN(CC)c1c(C)nnn1C1OC(COC(C)=O)C(OC(C)=O)C(OC(C)=O)C1OC(C)=O` (stereo unspecified) the value was inactive: > 100 µM.

Consider `CCC(C)(C)c1ccc(OCCCCNC(=O)c2ccc3ccccc3c2O)c(C(C)(C)CC)c1`, for which the GI50 is inactive: 35.5 µM. Regarding `Cc1nc2c(O)cc3c4c(=O)n(C)c(=O)n(C)c4n(Cc4ccccc4)c3c2nc1C`, the GI50 is inactive: 27.6 µM.

Regarding `CCOC(=O)C(C)c1nc2cc(F)c(F)cc2[nH]c1=O` (stereo unspecified), the GI50 is inactive: > 100 µM. For `N#Cc1cnn2cc[nH]c12` the value was inactive: > 100 µM. As for `O=C(O)COCC(=O)N(CCOCCN(Cc1ccccc1)C(=O)COCC(=O)O)Cc1ccccc1`, the figure is inactive: > 100 µM; as for `O=C(Nc1ccc(I)cc1C(=O)NCCO)c1cccs1`, inactive: > 100 µM. As for `N=c1c2c(ncn1N)Oc1c(c(-c3ccccc3)nn1-c1ccccc1)C2c1ccc(Cl)cc1` (stereo unspecified), the figure is inactive: 1.73 µM.

With `C1CCOC2(CCC3(CC2)OCCCCO3)OC1`, the GI50 was inactive: > 100 µM. For `C1CCNCC1.CN(C)c1ccc(/C=C2/NC(=S)NC2=O)cc1` the value was inactive: > 100 µM. As for `CCC(=O)O[C@H]1CC[C@H]2[C@@H]3CCC4=CC(=O)C=C[C@]4(O)[C@H]3CC[C@]12C`, the figure is inactive: 43.3 µM; as for `C=C1c2nc3ccccc3n2C=C(c2ccccc2)N1c1ccc(OC)cc1`, inactive: 34.5 µM.

Regarding `CC(C)(C)OC(=O)N/N=C(/N)c1ccccc1`, the GI50 is inactive: > 100 µM. For `CCC(c1nc2ccccc2c(=O)n1NC(=O)C(C)(C)C)C1(O)CCCCC1` (stereo unspecified) the value was inactive: > 100 µM; for `CCCCOCCOC1=C(Cl)C(=O)c2c(O)ccc(O)c2C1=O`, inactive: 1.77 µM. For `CCCc1nc2c(n1CC)C(=O)c1ccccc1C2=O` the value was inactive: 51.8 µM; for `O=C(Nc1ccccc1Cl)c1cc(S(=O)(=O)Nc2n[nH]c(=O)n2-c2ccccc2)c(S)cc1Cl`, inactive: > 100 µM; for `Cc1nc(O)nc2nc3ccc(Cl)cc3c(NCCNCCO)c12`, inactive: 9.14 µM. As for `Oc1cc(Br)cc2cc(Cl)cnc12`, the figure is inactive: 10.4 µM; as for `CC#CC(OCC)(OCC)OCC`, inactive: > 100 µM. As to `NC1C(O)C(O)C(CO)OC1n1cc(F)c(=O)[nH]c1=O` (stereo unspecified), the GI50 is inactive: > 100 µM. For `C#CC(C)(C)OC(=O)C(=[N+]=[N-])C(C)=O` the value was inactive: 9.31 µM; for `O=c1/c(=C/c2ccco2)sc2nc3ccccc3n12`, inactive: > 10 µM. As for `C/C(CC(=O)Nc1ccccc1C)=N/NS(=O)(=O)c1ccc(C)cc1`, the figure is inactive: > 100 µM. On to `O=C1CCCC1C(O)(C(F)(F)F)C(F)(F)F` (stereo unspecified), for which the GI50 is inactive: > 100 µM. For `CCOC(=O)/C(=N\Nc1ccc(-n2c(C)nc3ccc(Br)cc3c2=O)cc1)C(C)=O` the value was inactive: > 100 µM; for `COc1cc(/C=C/C(=O)CC(=O)/C=C/c2ccc(OC(=O)CCCCC3CCSS3)c(OC)c2)ccc1OC(=O)CCCCC1CCSS1` (stereo unspecified), inactive: > 100 µM; for `O=[N+]([O-])c1ccc(C(Nc2ccccc2)c2ccc3cccnc3c2O)cc1` (stereo unspecified), inactive: 6.14 µM. As for `O/N=N\c1nc(-c2ccccn2)nc2ccccc12`, the figure is inactive: 19.7 µM.

In the case of `CN1CC(c2ccccc2)N(CCCCN2CC(c3ccccc3)N(C)CC2c2ccccc2)CC1c1ccccc1` (stereo unspecified), the GI50 was inactive: > 100 µM.

Consider `COc1ccc(C2Oc3cc(OC)c(O)cc3[C@@H]2C)cc1` (stereo partly specified), for which the GI50 is inactive: 70.5 µM. For `CC(=O)O[C@H]1CCN2C(=O)C=CC(OCc3ccccc3)C12` (stereo partly specified) the value was inactive: > 100 µM; for `[C-]#[N+]C(C)(C)C[C@H]1CC(C)C2CCC(C)C3([N+]#[C-])CCC(=C)C1[C@H]23` (stereo partly specified), inactive: 8.13 µM; for `CCCCNC1CCCCC[C@H]1O` (stereo partly specified), inactive: > 100 µM. On to `CCOc1ccc(C(C)c2cc3c(cc2OC)OCO3)cc1` (stereo unspecified), for which the GI50 is active: 0.416 µM. As for `Cc1ncc([N+](=O)[O-])n1CCNS(=O)(=O)CCCn1ccnc1[N+](=O)[O-]`, the figure is inactive: > 100 µM. As for `CCc1nc(N)nc(N)c1-c1ccc(N2CCNCC2)c([N+](=O)[O-])c1`, the figure is inactive: 7.08 µM. As for `CC1(C)C(=O)N=C(N)N1C(=O)OCc1ccccc1`, the figure is inactive: > 100 µM.

The values are drawn from ChEMBL document CHEMBL1201862, “PubChem BioAssay data set” (2004).
